Measurements: the supplement of paper PMC3724861
The list shows a part of the results.

System: T1, Caupolican (Caup) homeodomain DNA-binding domain
T1 sequence: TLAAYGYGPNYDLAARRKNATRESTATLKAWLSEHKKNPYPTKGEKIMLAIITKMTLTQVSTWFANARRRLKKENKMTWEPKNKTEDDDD
Assay: PBM E-score (8-mer, recovered from the published 9-mer minima) (E-score (dimensionless, -0.5 to 0.5)); Drosophila protein; higher = stronger relative binding preference, active = 0.31 or more
Procedure, shortened: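 Caup's homeodomain DNA-binding domain (residues 214-303) was made by in vitro transcription and translation and applied at 100 nM to custom-designed protein binding microarrays. Each value is an enrichment score that gives relative binding preference for a short DNA word, with higher meaning stronger. The 8-mer values were recovered from published 9-mer scores, each of which was the minimum of its two constituent 8-mer scores. A cutoff of 0.31 marks candidate sites.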

| Sequence | PBM E-score |
| --- | --- |
| AAAGAAAG | inactive: -0.0768 |
| AGACGACC | inactive: -0.113 |
| AGGTGGAG | inactive: -0.0813 |
| CTAGCTAG | inactive: 0.0575 |
| GAAACAAA | inactive: 0.203 |
| CGATGCGA | inactive: -0.14 |
| GAAGTTCA | inactive: -0.00306 |
| AACCGCGC | inactive: -0.103 |
| AGGGCCGC | inactive: -0.251 |
| ACTTTCGC | inactive: -0.0524 |
| AACCAGGT | inactive: 0.0425 |
| CTCTGGGA | inactive: -0.227 |
| AGTGGGCA | inactive: -0.0967 |
| AGTCCACC | inactive: -0.0521 |
| AAGAAGAG | inactive: -0.0933 |
| GAAATACA | inactive: 0.263 |
| GTGGTCAA | inactive: -0.0171 |
| CGAGATAC | inactive: 0.142 |
| ACGCGAAC | inactive: -0.0449 |
| GCGACGCA | inactive: -0.023 |
| TGTACTAA | inactive: 0.279 |
| ACCATGGA | inactive: 0.0206 |
| GCGTGGAC | inactive: -0.0872 |

| Sequence | PBM E-score |
| --- | --- |
| CGTGTCTA | inactive: 0.267 |
| CTAACTGA | inactive: 0.0488 |
| AGCTTTTA | inactive: -0.0204 |
| CGGGCTAC | inactive: -0.128 |
| CAAGTAGC | inactive: 0.108 |
| ATAATTCG | inactive: 0.113 |
| CGTCCACG | inactive: -0.0892 |
| GATCAATA | inactive: 0.0795 |
| AGAAACTA | inactive: 0.0526 |
| CTCAGCTA | inactive: -0.122 |
| AGGAACAT | active: 0.339 |
| TATGAGAA | inactive: 0.102 |
| CTCACCAG | inactive: -0.105 |
| ACCAAGTC | inactive: -0.0398 |
| CGGTGCAA | inactive: 0.0179 |
| ACGCATGA | inactive: 0.0194 |
| TGAGCACA | inactive: 0.0593 |
| CAATTCAC | inactive: 0.111 |
| CCTCACGC | inactive: -0.0937 |
| ACGTACCT | inactive: 0.0612 |
| AATTCCGT | inactive: 0.0876 |
| CCCCGACA | inactive: 0.0258 |
| GACGTTGA | inactive: 0.00712 |

| Sequence | PBM E-score |
| --- | --- |
| AGCAGGCG | ≥ -0.0534 |
| CGGGCCGC | inactive: -0.245 |
| CAGACGGC | inactive: -0.144 |
| GCACAGGC | inactive: -0.0733 |
| TACAAAAA | inactive: 0.255 |
| AACATTAG | inactive: 0.271 |
| CCCTCCAC | inactive: -0.218 |
| CAGCAGGG | inactive: -0.172 |
| CGTCACAC | inactive: 0.069 |
| CGTGACTC | inactive: -0.0603 |
| ATCAAAAA | inactive: 0.107 |
| GATATCCA | ≥ 0.135 |
| ACCGCGCG | inactive: -0.123 |
| TATCCTGA | inactive: 0.0685 |
| ATAAGACG | inactive: 0.123 |
| ACAACTGG | inactive: 0.0957 |
| TTCTAGAA | inactive: -0.0405 |
| ACGGGTCC | inactive: -0.18 |
| ATTACCAG | inactive: 0.0804 |
| ACATCTCA | inactive: 0.19 |
| GAGTGACC | inactive: -0.0763 |
| GGCAATTA | inactive: -0.00055 |
| CGACTTAC | inactive: -0.0464 |

| Sequence | PBM E-score |
| --- | --- |
| GGATTGGA | inactive: -0.00273 |
| ACAGTAAA | inactive: 0.124 |
| AAGGGCAG | inactive: -0.129 |
| CATATAGC | inactive: 0.0802 |
| CGCCACCA | inactive: -0.272 |
| ATGGTTAC | inactive: 0.207 |
| GCGTAACC | inactive: -0.0415 |
| CAGAATCC | inactive: 0.0417 |
| CCGTTGAA | inactive: -0.092 |
| ACTAAACC | inactive: 0.00838 |
| ACGAGTGC | inactive: 0.0719 |
| CCCACCTA | inactive: -0.1 |
| ATCGGCTA | inactive: 0.0053 |
| TATAACGA | inactive: 0.138 |
| GAGAGGCA | inactive: -0.216 |
| AGGCACCG | inactive: -0.0703 |
| CCACACCA | inactive: 0.0142 |
| TCATTTAA | inactive: 0.167 |
| CGTGGCAA | inactive: -0.0386 |
| CGATAGTC | inactive: 0.00431 |
| AGAACTCT | inactive: -0.0309 |
| GTACCGAC | inactive: 0.0197 |
| TCTGGTAA | inactive: 0.133 |

| Sequence | PBM E-score |
| --- | --- |
| AAACAAAG | inactive: 0.107 |
| ATGGATAC | inactive: 0.159 |
| GTCGCCAC | inactive: -0.11 |
| AAGTAAAC | inactive: 0.199 |
| AGTACGGG | inactive: -0.0625 |
| CTTTCGGC | inactive: -0.0228 |
| CCTTCGTA | inactive: -0.151 |
| CACATCTG | inactive: 0.0639 |
| AATCGCAA | inactive: -0.00305 |
| CTGTTTAA | inactive: 0.111 |
| ATACCGGC | inactive: -0.0451 |
| CCGTATCA | inactive: -4e-05 |
| ATGAATCA | inactive: 0.114 |
| GACAAGTC | inactive: 0.236 |
| ATAACGGG | inactive: -0.0575 |
| TTGATAAA | inactive: 0.151 |
| CACGGGGA | inactive: -0.146 |
| ATTACAAG | active: ≥ 0.427 |
| ACATTATA | inactive: 0.245 |
